Experimental data as given in patent US20190330372A1 (Novartis, published 2019).

Tests used:
[1] = target: T1, AM4 (IgG); test: solution equilibrium titration (SET), panel 'AM4': soluble antigen titrated against a constant amount of IgG (5 pM, Table 9); free antibody captured on plate-coated human plasma FXIa, ECL read-out; axis labelled 'hFXI pM', the example names FXIa
T1 construct: Germlined version of AM3, with two amino acid changes at the N-terminus of the light chain
Method: (§1) Experiments were carried out in polypropylene microtiter plates and with PBS (GIBCO 14190, pH 7.0-7.2) containing 0.5% BSA and 0.02% Tween20 as assay buffer. Serial dilutions of unlabeled FXIa antigen were prepared, starting with a concentration at least 10 times higher than the expected KD. Wells without antigen were used to determine Bₘₐₓ values; wells containing only assay buffer were used to determine background. After addition of an appropriate amount of binder (antibody concentration similar to or below the expected KD, 60 μL final volume), the mixture was incubated over night at RT.
(§2) MSD plates were coated with 1 μg/mL human plasma derived FXIa (30 μL per well). After washing the plate with PBS containing 0.05% Tween 20, the equilibrated samples were transferred to the plates and incubated for 20 min. Following incubation, 30 μL per well of the MSD-Sulfo-tag labeled detection antibody (anti-Flag M2 (Sigma) 1:2,000) was added to the washed MSD plate and incubated for 30 min at RT on an Eppendorf shaker (700 rpm).
(§3) The SET method described in Example 2 was used to determine the KD for AM4 (IgG), and compared to NOV1401, the germlined version of its parental antibody NOV1090.

[2] = target: T2, NOV1401 (IgG); test: solution equilibrium titration (SET), panel 'NOV1401': soluble antigen titrated against a constant amount of IgG (20 pM, Table 9); free antibody captured on plate-coated human plasma FXIa, ECL read-out; axis labelled 'hFXI pM', the example names FXIa
T2 construct: Germlined version of NOV1090, human IgG1/lambda with D265A and P329A in the Fc
T2 sequence (VH, as listed by the source, chain 1 of 2): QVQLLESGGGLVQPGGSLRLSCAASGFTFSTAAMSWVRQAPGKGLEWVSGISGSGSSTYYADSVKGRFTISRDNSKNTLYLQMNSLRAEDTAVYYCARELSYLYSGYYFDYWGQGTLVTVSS
T2 sequence (VL, as listed by the source, chain 2 of 2): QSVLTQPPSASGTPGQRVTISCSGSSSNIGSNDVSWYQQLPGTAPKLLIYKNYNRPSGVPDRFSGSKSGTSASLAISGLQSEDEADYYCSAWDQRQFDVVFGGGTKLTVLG
Method: as §1, §2, §3

T1 sequence (heavy, as listed by the source, chain 1 of 2): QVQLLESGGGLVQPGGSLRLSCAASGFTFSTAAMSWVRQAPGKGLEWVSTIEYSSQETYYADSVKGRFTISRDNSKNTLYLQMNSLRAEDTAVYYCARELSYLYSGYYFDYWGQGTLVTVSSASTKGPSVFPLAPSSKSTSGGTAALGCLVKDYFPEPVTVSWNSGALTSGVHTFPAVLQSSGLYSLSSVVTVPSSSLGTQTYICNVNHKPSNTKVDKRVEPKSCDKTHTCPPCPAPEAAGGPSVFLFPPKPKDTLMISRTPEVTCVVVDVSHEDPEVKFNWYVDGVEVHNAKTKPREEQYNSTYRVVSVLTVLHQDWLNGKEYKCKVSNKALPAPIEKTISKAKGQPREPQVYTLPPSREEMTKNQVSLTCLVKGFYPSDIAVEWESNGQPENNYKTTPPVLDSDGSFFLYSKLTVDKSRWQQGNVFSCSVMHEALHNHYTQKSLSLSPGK
T1 sequence (light, as listed by the source, chain 2 of 2): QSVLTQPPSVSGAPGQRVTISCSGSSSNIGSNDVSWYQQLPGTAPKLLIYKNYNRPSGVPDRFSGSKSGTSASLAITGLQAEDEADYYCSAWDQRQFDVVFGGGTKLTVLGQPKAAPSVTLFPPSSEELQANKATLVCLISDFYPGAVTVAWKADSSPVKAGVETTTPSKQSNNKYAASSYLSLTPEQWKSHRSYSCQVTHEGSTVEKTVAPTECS

B1: human plasma derived FXIa (enzyme)
chain: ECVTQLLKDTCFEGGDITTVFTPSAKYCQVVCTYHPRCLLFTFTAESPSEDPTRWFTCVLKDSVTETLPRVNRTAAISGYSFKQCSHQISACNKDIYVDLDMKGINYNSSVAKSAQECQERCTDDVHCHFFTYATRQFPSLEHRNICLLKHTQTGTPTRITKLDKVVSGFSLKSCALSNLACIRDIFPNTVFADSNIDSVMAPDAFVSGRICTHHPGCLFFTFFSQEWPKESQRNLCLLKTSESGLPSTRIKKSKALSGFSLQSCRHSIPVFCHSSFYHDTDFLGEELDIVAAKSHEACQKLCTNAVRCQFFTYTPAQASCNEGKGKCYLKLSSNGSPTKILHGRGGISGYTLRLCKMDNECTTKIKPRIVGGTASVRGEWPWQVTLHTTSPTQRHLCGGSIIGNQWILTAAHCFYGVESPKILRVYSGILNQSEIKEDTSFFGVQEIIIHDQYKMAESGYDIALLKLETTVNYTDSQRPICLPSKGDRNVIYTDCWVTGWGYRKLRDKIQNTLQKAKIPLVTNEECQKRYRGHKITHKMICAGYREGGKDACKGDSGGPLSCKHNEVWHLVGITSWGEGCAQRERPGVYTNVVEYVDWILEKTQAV
notes: The light chain is the catalytic domain, […]; also called hFXIa; human FXIa
IC50 (read off the curve) [1]: ~3 pM
IC50 (read off the curve) [2]: ~10 pM
